# According to the supplement of paper PMC10441789:
# This is one part of the list. Antibody binding of pooled human sera (four to six donors per pool; dilution not stated) to peptides of the Trypanosoma cruzi antigen TSSA on microarrays. Quantile-normalised fluorescence in arbitrary units, mean of duplicate arrays; higher = more binding. No active / inactive call. The uninfected pools are read here as the healthy donors of the same country. The strongest signals lie near the top of the scale (about 60,000).
# Tested on: pooled sera of chronic Chagas disease patients, Argentina
# Experiment: antibody binding signal (normalised fluorescence) (arbitrary fluorescence units); higher = stronger serum antibody binding to peptide
# Procedure: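 Microarray of 15-residue peptides over residues 30-55 of Trypanosoma cruzi TSSAII, each with 1 to 10 substitutions at naturally variable positions, probed with one serum pool per country.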
row,Sequence,antibody binding signal
1,STPPSGKDKKPAAGG,36500
2,GKEKKTATGEAPSPS,8530
3,PPSGKDKKPAAGGAP,805
4,KKPAAGGAPSPPGAS,201
5,GKEKKTAAGETPSPS,2570
6,GTDKKPATGGAPSPP,893
7,NKTAAGETPSPSGAS,277
8,GKENKTAAGEAPSQS,6050
9,SGTEKKTAAGEAPSQ,556
10,DKKAAAGGTPSQSGA,667
11,TPPSGKDNKAATGGA,5600
12,KTAAGGTPSPPGASS,1070
13,SGKDNKAATGETPSP,2440
14,PPSGKDKKPAAGGTP,800
15,SSTPPSGKDNKAAAG,33400
16,KDNKTATGETPSQSG,1110
17,TEKKPAAGGAPSPPG,1090
18,KENKAAAGGTPSQSG,172
19,STPPSGKDNKAATGG,39100
20,SGTDKKPAAGETPSP,325

row,Sequence,antibody binding signal
1,PSGTDKKPATGGTPS,4990
2,TPPSGKDNKPAAGEA,18700
3,STPPSGTDKKAAAGE,35300
4,TDNKPAAGEAPSPPG,3100
5,KEKKTATGEAPSPSG,5620
6,KDNKTAAGETPSPSG,1120
7,PSGTDKKTATGGTPS,3440
8,GTEKKPATGEAPSQS,47200
9,TPPSGKENKAATGGT,9700
10,PPSGKENKTAAGEAP,6650
11,PPSGTDNKAAAGEAP,24900
12,GTENKTATGETPSPS,25100
13,SGKDNKAAAGEAPSQ,1030
14,GKEKKTATGGAPSPP,2980
15,DKKTAAGEAPSQSGA,661
16,TSSTPPSGKDKKPAA,29300
17,TENKTATGGAPSQSG,17900
18,GTDKKTATGEAPSQS,13600
19,DNKPAAGGAPSPPGA,178
20,TPPSGTDNKPAAGGA,31800
